Data published in PubChem BioAssay AID686979 (National Center for Advancing Translational Sciences (NCATS), 2013).
Out of some 420,000 compounds screened, about 50,000 (12%) were called active. The shares of active, inactive and inconclusive entries below differ from those in the screen. The call rests on the fitted dose curve; in most records, active means well fitted inhibition curve with a large enough effect; inconclusive means small, poorly fitted or top-dose-only effect; inactive means flat fitted curve, though single readings scatter. Potencies of inconclusive entries are left out as doubtful fits.

Test: qHTS for Inhibitors of human tyrosyl-DNA phosphodiesterase 1 (TDP1): qHTS in cells in presence of CPT; further: nearly all actives have a fitted effect of over 55% in size
Conditions: chicken DT40 Tdp1-/-;hTDP1 cells + 20 nM CPT, ATP luminescence, 48 h; activity change, negative = growth inhibition: at 46.2 µM (top of the series)
In short: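 Chicken DT40 Tdp1-/- cells complemented with human TDP1, 400 cells/well, exposed to compounds plus 20 nM camptothecin for at least 48 h at 37 C; viability read as ATP content by CellTiter-Glo luminescence.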
On the % scale 0 is the no-effect control and ±100 the full control effect; potency means the concentration at half of the fitted maximal effect; tags describe the fitted curve by direction and shape.

Compound	Potency	activity change, negative = growth inhibition
Cc1cc(C)cc(Cn2c3ccc(NC(=O)NCc4ccc(F)cc4)cc3c(=O)n2C)c1	inconclusive [inhibitor, single point]	
O=C(O)C(Cc1c[nH]c2ccccc12)NS(=O)(=O)c1ccc(Cl)c(C(F)(F)F)c1 (stereo not drawn)		inactive: -0.0192%
Cc1ccc(C)c(S(=O)(=O)N2CCN(C(=O)[C@H](Cc3ccccc3)NC(=O)c3ccco3)CC2)c1	active: 23.1 µM	
COc1ccc(CCNC(=O)CCN2C(=O)C3CC=CCC3C2=O)cc1OC (stereo not drawn)	inconclusive [inhibitor, single point]	
COc1cccc(Cn2c(C(C)n3c(-c4cnccn4)nc4ccccc43)nc3ccccc32)c1 (stereo not drawn)	inconclusive [inhibitor, single point]	
Cc1cc2[nH]c(=S)[nH]c2cc1C		inactive: -15.1%
COc1cc(/C=C/c2cc[n+](C)cc2)ccc1OCC(=O)Nc1ccc(Cl)c(Cl)c1	inconclusive [inhibitor, single point]	
CCCNc1c(NS(=O)(=O)c2ccc(C3CCCCC3)cc2)c(=O)oc2ccccc12	inconclusive [inhibitor, single point]	
COc1ccccc1NC(=O)CN1CCN(CC(=O)Nc2ccc3c(c2)OCCO3)CC1	inconclusive [inhibitor, single point]	
O=C(C[C@@H]1C/C=C\CCCC(=O)OC[C@@H]2CCCN2C1=O)N[C@@H](CO)Cc1ccccc1		inactive: -15.7%
C/C(=N\OCC(=O)OCC(=O)NCc1ccccc1)c1ccc2c(c1)OCO2		inactive: -0.575%
CC1(C)C(=O)Nc2ccccc2N1C(=O)COC(=O)Cc1ccc(Cl)c(Cl)c1	inconclusive [inhibitor, single point]	
O=C(NCc1cccnc1)c1cc2nc(-c3cccs3)cc(C(F)(F)Cl)n2n1	inconclusive [inhibitor, single point]	
CC(C)CCN1CCN(Cc2ccc(N3CCNC3=O)cc2)CC1CCO (stereo not drawn)		inactive: -2.98%
CC(NC(=O)C1CCN(C(=O)c2ccc(F)cc2)CC1)c1ccc(S(N)(=O)=O)cc1 (stereo not drawn)		inactive: 12.5%
O=C(NC(=O)c1ccccc1F)Nc1nc(-c2cccs2)cc(C(F)(F)F)n1	active: 23.1 µM	
O=C(N/N=C/c1ccccc1F)c1cccc2ccccc12	inconclusive [inhibitor, full curve]	
Cc1ccc(C)c(N2CCN(CCCNC(=O)c3ccc4nc(N5CCC(C)CC5)sc4c3)CC2)c1	active: 14.6 µM	
O=C(c1cccc(S(=O)(=O)N2CCN(c3ccccc3)CC2)c1)N1CCCC(C(F)(F)F)C1 (stereo not drawn)	active: 7.31 µM	
Cc1ccc2oc(-c3cccc(NC(=O)/C=C/c4cccc([N+](=O)[O-])c4)c3C)nc2c1	inconclusive [inhibitor, partial curve]	
Oc1cccc(C(O)CNCc2ccc(-c3ccccc3)cc2)c1 (stereo not drawn)	active: 18.4 µM	
O=C(NCc1ccco1)c1ccccc1NC(=O)C1CC(=O)N(c2ccc(Cl)cc2)C1 (stereo not drawn)	inconclusive [inhibitor, single point]	

Compound	Potency	activity change, negative = growth inhibition
Cc1ccc(CNC(=O)CN(C)S(=O)(=O)c2cccs2)cc1		inactive: 2.55%
CC1CCN(c2ccc3nnc(CCC(=O)NCc4ccco4)n3n2)CC1	inconclusive [inhibitor, single point]	
CCc1ccc(C2=NN(CCC(=O)NCCc3ccccc3)C(=O)CC2)cc1	inconclusive [inhibitor, single point]	
CC(c1ccccn1)N(C)C(=O)c1ccc2nc(Cc3cccc(Cl)c3)oc2c1 (stereo not drawn)	inconclusive [inhibitor, single point]	
CN1CCN(c2ccc([N+](=O)[O-])cc2C(=O)c2ccc(Br)cc2)CC1	active: 2.31 µM	
Cc1ccc(C)c(N(C(=O)CCC(=O)Nc2cc(C)on2)C(C(=O)NC2CCCC2)c2ccco2)c1 (stereo not drawn)	active: 16.4 µM	
COC(=O)C1=CN(C(C)C)C=C(C(=O)OC)C1c1cc2c(cc1Br)OCO2	inconclusive [inhibitor, single point]	
COc1cccc(-c2ccc3ncnc(NC4CCNCC4)c3c2)c1	inconclusive [inhibitor, single point]	
CCN(CC)S(=O)(=O)c1cc([N+](=O)[O-])ccc1N=Nc1c(O)[nH]c2ccccc12		inactive: -19%
CN(C)/C=N/C1=C(C#N)C(c2ccc(Br)cc2)c2ccc3ccccc3c2O1 (stereo not drawn)	inconclusive [inhibitor, single point]	
COc1ccc(N2CCN(C(=O)c3ccc(NS(=O)(=O)c4ccc(F)cc4)cc3)CC2)cc1		inconclusive: -32.3% [inhibitor]
COc1cc(C2NC(=O)NC(C)=C2C(=O)OC2CCCC(C)C2)ccc1O (stereo not drawn)	inconclusive [inhibitor, full curve, poor fit]	
O=C(O)CC(C(=O)O)N1C(=O)/C(=C/c2ccc(-c3nc4ccccc4s3)o2)SC1=S (stereo not drawn)		inactive: 1.55%
O=[N+]([O-])c1ccc(N=Nc2ncc[nH]2)cc1	active: 0.92 µM	
COc1ccc(NC(=O)CN2CCC(C(=O)c3ccc(F)cc3)CC2)c(OC)c1	inconclusive [inhibitor, single point]	
CCc1c(C)c2cc3c(c(C)c2oc1=O)OCN(CCc1ccc(OC)c(OC)c1)C3	inconclusive [inhibitor, single point]	
Cc1cc(C)c2cc(C#N)c(N3CCCN(C(=S)NCCCN(C)C)CC3)nc2c1	inconclusive [inhibitor, single point]	
Cc1nc2scc(-c3ccccc3)c2c(=O)n1/N=C/c1ccco1	inconclusive [inhibitor, single point]	
CCOc1cc(C=O)ccc1OCCCN1C(=O)NC(C)(C)C1=O		inactive: -17.7%
CC(=O)c1ccc(Nc2cc(C)nc3nc(Cc4ccccc4)nn23)cc1	inconclusive [inhibitor, single point]	
Cc1onc(-c2ccccc2Cl)c1C(=O)N1CCOC12CCCCC2		inconclusive: -30% [inhibitor]
